Experimental data reported in US20250090557A1 (priority 2020, published 2025).

Test system: SARS-CoV-2
Format: cell-based
Conditions: Calu3, single cell and protein level

Q: With `COC1=C(OC)C(=O)C(CCCCCCCCCC[P+](c2ccccc2)(c2ccccc2)c2ccccc2)=C(C)C1=O.CS(=O)(=O)[O-]` [Mito-MES, 10-(4,5-dimethoxy-2-methyl-3,6-dioxo-1,4-cyclohexadienyl) decyl triphenylphosphonium methanesulfonate] as the compound, how does the “percent of SARS-CoV-2 infected cells (flow cytometry)” value read?
A: inhibits or reduces the percent of SARS-CoV-2 infected Calu3 cells
